In all, about 33,000 sequences were measured (“E-score (-0.5 to 0.5)”: median about -0.054, highest 2% from about 0.35 on). The list shows a part of the results.
target: T1, Stb5 (UniProt P38699); experiment: PBM E-score (8-mer binding enrichment) (E-score (-0.5 to 0.5)); higher = stronger / more preferred TF binding; most listed sequences are background and not binding sites; settings: protein concentration: 200 nM; construct: GST-full length
T1 sequence: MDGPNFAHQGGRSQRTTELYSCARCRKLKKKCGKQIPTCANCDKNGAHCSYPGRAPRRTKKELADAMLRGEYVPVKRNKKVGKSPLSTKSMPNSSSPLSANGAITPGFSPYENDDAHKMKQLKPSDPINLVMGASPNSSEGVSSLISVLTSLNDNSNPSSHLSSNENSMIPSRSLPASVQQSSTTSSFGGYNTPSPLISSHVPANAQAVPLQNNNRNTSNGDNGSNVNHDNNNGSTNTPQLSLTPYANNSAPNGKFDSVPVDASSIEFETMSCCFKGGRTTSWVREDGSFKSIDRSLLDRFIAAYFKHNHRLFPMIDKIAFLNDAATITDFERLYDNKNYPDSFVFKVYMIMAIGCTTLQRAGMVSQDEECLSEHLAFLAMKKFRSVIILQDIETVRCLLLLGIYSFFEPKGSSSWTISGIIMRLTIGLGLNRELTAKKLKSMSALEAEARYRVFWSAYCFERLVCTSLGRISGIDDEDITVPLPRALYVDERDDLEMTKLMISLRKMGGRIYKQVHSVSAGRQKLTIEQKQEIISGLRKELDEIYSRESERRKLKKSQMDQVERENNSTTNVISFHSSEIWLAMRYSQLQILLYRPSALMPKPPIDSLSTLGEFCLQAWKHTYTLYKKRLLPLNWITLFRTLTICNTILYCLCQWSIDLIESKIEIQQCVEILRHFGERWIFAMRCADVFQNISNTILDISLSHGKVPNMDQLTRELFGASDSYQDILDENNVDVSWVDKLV
Procedure, shortened: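 Yeast transcription factors, full-length or as DNA-binding domains, were expressed with a GST tag using PURExpress in vitro transcription/translation. At about 100-200 nM they were applied to universal all-10-mer Agilent arrays, double-stranded by primer extension on fresh or once-stripped slides. Fluorescent anti-GST detected bound protein, and masliner normalised the scans. E-scores for ungapped eight-base words, pooled with reverse complements, came from the Universal PBM Analysis Suite.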

| Sequence | PBM E-score |
| --- | --- |
| CGCGGTTC | 0.205 |
| TAAGCGTA | -0.235 |
| GAGGCACA | -0.105 |
| AGGAGGCG | -0.0399 |
| CAGGTAGA | -0.0499 |
| CTTCCATA | -0.163 |
| CAGGAAGG | -0.237 |
| AGATGATG | -0.173 |
| ACCCCAGT | -0.0317 |
| GTCGTTTA | -0.0556 |
| GGGGGGCA | -0.252 |
| GGCCGTTA | 0.213 |
| GGCTAGCC | -0.149 |
| ACGGGCTG | 0.102 |
| AGTTAACG | 0.0386 |
| TGACCCCA | -0.112 |
| CAGTCTAA | 0.00323 |
| TCGGTAGA | 0.108 |
| AAAATCTT | -0.12 |
| AGAGGGAG | -0.367 |
| CTTAGACC | 0.0337 |
| ACCGGCAC | 0.373 |
| ACAGTGAG | -0.383 |
| CCTTCCAC | -0.101 |
| CTTAGCTC | 0.144 |

| Sequence | PBM E-score |
| --- | --- |
| GGGCATTA | 0.176 |
| AATTACCT | -0.152 |
| GCTCACTA | -0.229 |
| CCTCATGA | -0.054 |
| TCACATCA | -0.231 |
| ACCTAGTC | -0.134 |
| AGGGCTAT | -0.228 |
| ATCCGTTG | 0.158 |
| TACACGAA | 0.105 |
| GACCACCC | -0.203 |
| ATGGATGA | -0.187 |
| CAAGAGGG | -0.306 |
| AGGAGTTA | 0.287 |
| TACGGGAA | 0.271 |
| CGGGAGAA | 0.0541 |
| ACCACCCG | 0.0381 |
| AACGTATG | -0.248 |
| ACTATGAC | -0.057 |
| ATTTGTCG | 0.0123 |
| ACGAACTG | -0.15 |
| AAATTACG | -0.165 |
| AGGGATGC | -0.264 |
| ACGTAAGT | -0.0909 |
| AAGCCTTG | -0.289 |
| ATACGATA | -0.11 |

| Sequence | PBM E-score |
| --- | --- |
| GCCTGGCC | -0.0528 |
| CCGGAGCC | 0.182 |
| ACCTTGAA | -0.276 |
| CCTATCCA | -0.0932 |
| GACTATGC | -0.199 |
| CATAAGGA | -0.0433 |
| AGTCATCC | -0.13 |
| CAGCCCGG | 0.246 |
| GCGCGTAC | 0.0419 |
| ACTCTTGG | -0.13 |
| CTCCGACA | 0.366 |
| AGGCTCTA | -0.0942 |
| CCCATCGG | 0.274 |
| ATCGCTCC | 0.154 |
| TCAAGAGA | -0.0963 |
| CCATCCAC | -0.185 |
| TCATATCA | -0.0158 |
| ATTATCAA | -0.174 |
| CCGCAACG | 0.265 |
| AACTGATC | -0.166 |
| ATAGGGTG | -0.292 |
| GTTGGATA | 0.0344 |
| CAATTTCG | -0.11 |
| ACTAATCA | 0.0538 |
| CTGCCGAA | 0.071 |

| Sequence | PBM E-score |
| --- | --- |
| AATGGAAG | -0.132 |
| ACTGGCGA | -0.284 |
| CACTACCC | -0.179 |
| ACGACATC | 0.074 |
| ACACCGAG | 0.369 |
| CCTGGAAG | -0.344 |
| CAGGATCG | -0.0453 |
| CCCGGAAA | 0.0585 |
| ACTAGCGC | 0.102 |
| AAAGAGAG | -0.234 |
| ATCCCAGA | -0.148 |
| CCACAGAG | -0.171 |
| CCAAAACA | -0.112 |
| TCTATGAA | -0.121 |
| GGCTGCAA | -0.0454 |
| ACCTGCCA | -0.0783 |
| TGCTTCAA | -0.0863 |
| ACATTCCA | -0.144 |
| ATGTAGCG | -0.0982 |
| AGGCAGTG | -0.242 |
| ACCTCTCG | -0.343 |
| ATAGAGGA | -0.239 |
| GAGATCCC | 0.167 |
| ACCGGCCA | 0.272 |
| AGGCCGCC | 0.324 |

| Sequence | PBM E-score |
| --- | --- |
| GAGATAAA | 0.0862 |
| ACCTCAGA | -0.125 |
| AATGGATC | 0.0237 |
| AGTCACAT | -0.165 |
| TGTGGTAA | -0.148 |
| CGTTAAGA | 0.104 |
| CTCACAAC | -0.191 |
| ATCCTCGA | -0.187 |
| TAATCGGA | 0.202 |
| AACCGGAC | 0.28 |
| ACGGAAAA | 0.0613 |
| CGCGAGAG | -0.0249 |
| ATGGTCAC | -0.122 |
| CAGCAGAA | -0.134 |
| GCGTCGAA | -0.00458 |
| CCTGCGAA | -0.104 |
| CCCATCCC | -0.162 |
| CTAACTAG | -0.12 |
| ATGGCAAA | -0.0403 |
| AACATGAG | -0.0791 |
| CTACACGA | -0.0898 |
| AAACATCC | 0.227 |
| CGCATGAA | -0.0542 |
| AGAAGAAC | 0.0159 |
| AATGTATC | -0.161 |

| Sequence | PBM E-score |
| --- | --- |
| AGGCACAT | -0.176 |
| CACACACA | -0.242 |
| CAATGTAA | -0.128 |
| CAAGTGAG | -0.135 |
| AATAGAGT | -0.221 |
| TAAAACGA | -0.233 |
| ACAACCAG | -0.0834 |
| ATGTACCC | 0.0379 |
| AGCAGGGA | -0.205 |
| AAAACCGA | 0.286 |
| TCATGACA | -0.0976 |
| GAACGACC | -0.0312 |
| CCTGAAGA | -0.0667 |
| ATTAATCA | -0.00286 |
| TCCCGTCA | 0.198 |
| AATCGAGG | -0.2 |
| AATGTCTG | -0.0972 |
| CGCGATGA | 0.052 |
| CTCCACAG | -0.313 |
| ATTGATCA | -0.28 |
| AGTGACCC | -0.144 |
| CCCAAACA | -0.329 |
| CGCGATTA | 0.105 |
| AATATCGC | 0.0838 |
| GCGTGTAC | 0.0732 |

| Sequence | PBM E-score |
| --- | --- |
| CCGTTGTA | 0.156 |
| CCACGCGC | 0.00935 |
| GAGTTTCA | -0.131 |
| GATTTCGC | 0.0818 |
| AGTACGTC | -0.125 |
| ATAGATCG | -0.047 |
| CACGCAGC | 0.0109 |
| AATACTTG | -0.0989 |
| CTCTAAAA | 0.0124 |
| CAAGTTAG | -0.0228 |
| GCAGCTAC | 0.0204 |
| TATATCAA | 0.0919 |
| CCCATGCG | -0.113 |
| AGGTCAGC | -0.149 |
| CGCCTAAA | 0.0151 |
| AAGATTTA | 0.0658 |
| AACAACCT | -0.214 |
| AGGGTATC | -0.0284 |
| AACACGTC | -0.16 |
| GCATCTCC | 0.0871 |
| GGTAGAAA | 0.119 |
| CGCCAACC | 0.163 |
| ACACTCTC | -0.0845 |
| AGCGAAAC | -0.0251 |
| CCGCCACA | 0.241 |

| Sequence | PBM E-score |
| --- | --- |
| CTTTTTCC | 0.115 |
| AGATATAT | 0.123 |
| AGAAGCCT | -0.0816 |
| CGGCCCGC | 0.188 |
| CGGTAGAG | 0.0365 |
| AGGCTGGC | -0.236 |
| AGGCCTTG | -0.183 |
| AAACAACG | 0.0695 |
| GAGGTCGA | -0.241 |
| GTGGATAA | -0.0153 |
| AAGATGGG | -0.0408 |
| CGTTCTAA | 0.128 |
| TCACCCAA | -0.115 |
| GCCGTCGA | 0.201 |
| ATTGCCGC | 0.351 |
| ATGGAGGG | -0.235 |
| GGCTCCCA | -0.0473 |
| CAACCACC | 0.152 |
| AGTCCATG | -0.0765 |
| ACCTGAAC | -0.124 |
| GCTGATCC | -0.0374 |
| AGAATAAC | 0.0561 |
| AAAATATC | 0.0946 |
| CGGTACAA | 0.323 |
| CGGGCGAC | 0.126 |

| Sequence | PBM E-score |
| --- | --- |
| AGTCGTGA | -0.216 |
| CTATGTGC | -0.0835 |
| ACTAGAGA | 0.0299 |
| CCGGTCTC | 0.217 |
| AGCATGCG | -0.0356 |
| AGTACTCA | -0.258 |
| GGGGGTTA | 0.212 |
| CGCCGTCC | 0.265 |
| CCGGGATA | 0.202 |
| GTACCGGA | 0.261 |
| ACAAGGAA | 0.104 |
| CTACTATA | 0.0217 |
| GCGCGCAA | 0.0868 |
| ACAATCCC | 0.212 |
| AAGTTGGT | -0.133 |
| CAAGTGTA | -0.155 |
| ACCTTCCC | -0.15 |
| CTAGCACC | 0.336 |
| AAGTTCAG | -0.373 |

Source: the supplement of paper PMC3334620
